From the supplement of paper PMC11417369
± gives the standard deviation of the averaged measurements. Some of the results follow.

system: PfAP2-LT AP2 domain (GST-tagged); assay: gcPBM binding intensity (ln(normalized median fluorescence intensity)); higher = stronger DNA binding
Method in brief: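 GST-tagged P. falciparum DNA-binding domains, expressed in E. coli (about 25 μg on average), were applied for 1 h to an Agilent 4 × 180k array of primer-extended double-stranded 36-bp intergenic genomic probes plus negative controls. The binding buffer was 1× PBS with 1% milk, 0.2 mg/ml BSA, 0.5% salmon testes DNA and 0.03% Triton X-100. Bound protein was detected with Alexa488 anti-GST antibody and scanned at 488 nm. Binding intensity is the highest Masliner-normalised natural-log median intensity across replicate spots of either probe orientation.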

Row | Sequence | gcPBM binding intensity (ln)
1 | TATTAAATGGCCATTACATGCAATTATTTCTAATAA [TGCATGCA_site275] | 8.54 ± 0.42
2 | ATATTAAATGTTATCACACACATAATTACTTCCATA [CACACA_site7160] | 9.21 ± 0.38
3 | GCATATAAAATAAATCGTACATGTAAAACATAATTA [XGTACX_site7077] | 8.9 ± 0.4
4 | GCTGAAAGGATAAAGGTGCATATTTTTTAAAAAATT [GTGCAC_site9487] | 8.7 ± 0.49
5 | AATATTTTATATGTAGTGCATTACTATAGGATTTAT [GTGCAC_site9424] | 8.7 ± 0.36
6 | TTTTTTTTTTTTATATGTACTAATAATCTTTTTTTT [XGTACX_site3552] | 8.58 ± 0.51
7 | TGCTTATATCTTATAATATTTATACATCATAATAAG [CACACA_negctrl_site629] | 8.47 ± 0.47
8 | TGTGTCAAATAATTAATGTCATATATATTTTGTATA [CACACA_negctrl_site1479] | 8.59 ± 0.38
9 | ACAAAATAAACGGCTGCACACAAGAAGCACAATATT [CACACA_site3690] | 9.55 ± 0.47
10 | GGCAGCAATTTAGTTACACACATATATAGGTATACA [CACACA_site76] | 9.21 ± 0.41
11 | GATAGAAAAAAATAATGTACACACACATATATGTTT [XGTACX_site392] | 9.34 ± 0.46
12 | TTTCTTTTTTCTGTTATTATTATAAAACGATATTTA [TGCATGCA_negctrl_site167] | 8.42 ± 0.45
13 | TATTTTTATTTTAATTGTACTTTTTAATTAATAATA [XGTACX_site8302] | 8.39 ± 0.48
14 | TACACATACCCATACACACGCATAGAAACATACGAA [CACACA_site5212] | 9.33 ± 0.42
15 | ATACATATTCTTATTTGTACTTATTATAAAATGGTC [XGTACX_site6584] | 8.79 ± 0.38
16 | TAACTGATATATAAAACACACATCATAAAAATATAA [CACACA_site6499] | 8.9 ± 0.4
17 | ACAATAATTTCCATCACACATATATTTATATATTAC [CACACA_site6003] | 8.99 ± 0.44
18 | TTGCATCTACATTTATGTACATATCTTATGATAAAT [XGTACX_site2146] | 9.15 ± 0.39
19 | AAATATATCTTCTTTGCACACTTAAAGGGAAGTGAT [CACACA_site343] | 8.79 ± 0.32
20 | AGATATATTTTTTAAATTTAAAAATTATAAAATTTA [CACACA_negctrl_site533] | 8.05 ± 0.51
21 | AATTATACTCACGTTACACACACACTATATATATAT [CACACA_site9375] | 9.67 ± 0.18
22 | TCAAAATGTTACAAATTATGTTGGCTAAAATTTTAA [TGCATGCA_negctrl_site188] | 8.21 ± 0.33

Row | Sequence | gcPBM binding intensity (ln)
23 | TTGAACCTGATAAATACACACAATATAGATTTTTTT [CACACA_site7091] | 8.77 ± 0.41
24 | ACACATATAAATAAAACATGCATATGTAAATATATA [TGCATGCA_site403] | 9.23 ± 0.44
25 | TATAATATAATATTTTGTACATATGATAAAAAAAAA [XGTACX_site6858] | 8.44 ± 0.42
26 | TTATAATATGTATACACACACATATATAAATATATA [CACACA_site2326] | 9.12 ± 0.32
27 | TTTTGTTATATACAATAGATCAGAAGAAATGAAGTT [CACACA_negctrl_site1579] | 8.5 ± 0.4
28 | CTTACGTATTAAGTGTGTCCGTAGTGTTCATAGTTC [XGTACX_site8913] | 9.1 ± 0.35
29 | CAATGTTAACATATTACACACATATGTATATAGAAT [CACACA_site2732] | 9.15 ± 0.38
30 | TGTACGAGTCGTAGAGTGCAGTCTGGAGAAGAGTAC [GTGCAC_site9684] | 9.11 ± 0.51
31 | AAAATTTATAAAAGCACACAAAATAAAAAAAAATGA [CACACA_site1491] | 8.88 ± 0.46
32 | TATATATGTATATATTTTATAAGTATGCAAGAAAAT [TGCATGCA_negctrl_site486] | 8.65 ± 0.4
33 | ATATTGGAATAAATTTGTACATATATATATTATTCA [XGTACX_site916] | 8.7 ± 0.44
34 | ACATAATGCTAGACACGTACGTACATCCGTGAGGTT [XGTACX_site4156] | 9.16 ± 0.4
35 | TGAACTCAACAAAGGGTGCATAACAAAAATAGACGT | 9.1 ± 0.52
36 | TTATTATTATATTCTACATGCAGTTTGTGTAGAACA [TGCATGCA_site455] | 8.66 ± 0.38
37 | GTAAAAGAACGGCATGCATGAAAAATATTACACATG [TGCATGCA_site143] | 9.23 ± 0.42
38 | AATATATGGTTTCATGATATTAAATACAATTTAATG [CACACA_negctrl_site1503] | 8.46 ± 0.35
39 | ATATATATATGTATATGTACTTATATTATTGTTTGT [XGTACX_site1466] | 9.05 ± 0.31
40 | CTATAATTATGATGAAGTACATATGAGTTCAAAAAA [XGTACX_site3070] | 8.65 ± 0.53
41 | AAAGTAAATTTAAGCACACACAACGAATTTTTATAC [CACACA_site1959] | 9.34 ± 0.45
42 | TTTCAATAATAAAAAACACACACAAAAAAAAATAAT [CACACA_site8905] | 9.38 ± 0.47
43 | AAAAATATAAACACCAGTACACAAACCTATAATGGA [XGTACX_site3846] | 9.21 ± 0.45
44 | ATATATATACTGTGTACACAAATATATATTATATAT [CACACA_site6104] | 8.93 ± 0.38

Row | Sequence | gcPBM binding intensity (ln)
45 | AAAAATAAAAAAAGCACACACATATAAATAAATATA [CACACA_site6968] | 9.38 ± 0.35
46 | TAATTTTTCTTTTATTAACACACATATAAATAAATA [CACACA_site8935] | 8.41 ± 0.36
47 | CCCAATAATTAAACAACACACATATTTATAGGTAAT [CACACA_site7445] | 9.31 ± 0.27
48 | TATATGACAAGATAAAGTACAAATTTGTATATATAT [XGTACX_site3027] | 9.04 ± 0.37
49 | ATATATTTATATATTACACACAATATTGTAGACATA [CACACA_site4669] | 8.87 ± 0.32
50 | GAAAGAAATAAAGGTGGTACATAAATAAAAACTAAG [XGTACX_site4826] | 8.95 ± 0.67
51 | TGTAGTCTGGAGAAAAGTACATAGTATCTGGTAGCT [XGTACX_site2031] | 8.82 ± 0.39
52 | AAATTCCACGGACACACACACATATAAATAAATAAA [CACACA_site4811] | 9.74 ± 0.47
53 | TTTACACGTACGTGTACACACAAAAATATGTTTTTA [CACACA_site995] | 8.81 ± 0.38
54 | ATTTATATGGTTTGCACACATAACAACTATGGTTAT [CACACA_site3632] | 9.45 ± 0.33
55 | AACATAAAAAAAATATGTACATATATAATATATATA [XGTACX_site3764] | 8.82 ± 0.49
56 | TAAAATAAAAAGTTTACACACATATATAATTTTAAT [CACACA_site662] | 8.74 ± 0.42
57 | AACCATTTTAAATATGCACACAGATGCACTAACACA [CACACA_site8565] | 9.26 ± 0.24
58 | GAATTATATAATTAAAGTACATTGTTTATATAATCA [XGTACX_site7246] | 8.52 ± 0.51
59 | TCCTTTCAACCATATATAATGACATGTACTCAAAAA [GTGCAC_negctrl_site417] | 8.56 ± 0.45
60 | CATCCATATAAAATATGTACATATATATATATATAT [XGTACX_site5859] | 9.535 ± 0.064
61 | TATTTTAGTAAAGGTGGTACTTTTAAGTTCATGTAT [XGTACX_site1854] | 8.67 ± 0.48
62 | AAAAAAAAAGAAAAATGTACATACATAAATATATAT [XGTACX_site5664] | 8.84 ± 0.57
63 | ATTATAAACCATAATTAACACACAAAATAAGTTACA [CACACA_site9057] | 8.96 ± 0.39
64 | ATTCTATTTTTTATAAAACCATGTCATCAACATAGG [CACACA_negctrl_site237] | 8.46 ± 0.6
65 | AAAAAAAAAAAAAAAAGTACACAAATAGATTTATAT [XGTACX_site3727] | 8.49 ± 0.53
66 | TCGTGAGAAAATATTACACACATTTACTATAGTATC [CACACA_site3444] | 9.05 ± 0.43

Row | Sequence | gcPBM binding intensity (ln)
67 | TTTTTTAAAGATTACTCAAAAAAATAAAAAAATAAA [GTGCAC_negctrl_site222] | 7.92 ± 0.53
68 | TTTTTTTTTTTTTTTTGATACATTAACCTACAATGG [GTGCAC_negctrl_site625] | 8.27 ± 0.52
69 | TGAGTTCAACAAAGACGTACAAAACCAAAAATATAA [XGTACX_site8931] | 8.88 ± 0.57
70 | TATATATCAAGACACACACACATATATTTATTTATA [CACACA_site7733] | 9.55 ± 0.34
71 | GATAATTTATTTTTTCGTACACAAAATATAATATAT [XGTACX_site1470] | 8.45 ± 0.42
72 | TATATATATATATTCACACATATAGTATTGTATTTA [CACACA_site5147] | 9.14 ± 0.2
73 | TATATTTTATATTAGTGTACAAATTTCATTTTTCAT [XGTACX_site2204] | 8.6 ± 0.54
74 | AATATATATAAAAAAGTGCATTAGGATAACCATATA [GTGCAC_site9590] | 8.88 ± 0.39
75 | AAGAAGAAAAACCATTGTACGAACTAACATATATAA [XGTACX_site3226] | 8.83 ± 0.55
76 | GGTATACATAATACTTGTACTAGGCAACAATAAGAT [XGTACX_site1437] | 9.09 ± 0.4
77 | TGTTAAAAGAAAAAAAGTACAAAAAATTATACATTT [XGTACX_site467] | 8.45 ± 0.47
78 | ATATATTTATATTTGTGTACATATTTATTATATTTA [XGTACX_site404] | 8.91 ± 0.49
79 | ATTTGTGACCACACAAATAAATAAATAAAAAAAAAA [TGCATGCA_negctrl_site328] | 8.54 ± 0.61
80 | AATATGAATATCTATACACACACATATATATACACA [CACACA_site8459] | 9.45 ± 0.26
81 | TAATAATAGAAACACACACACATTTTTAATAATACA [CACACA_site1216] | 9.74 ± 0.34
82 | TTTTATTTTTATAACAGTACATAAGTAATTGTTCAA [XGTACX_site7574] | 8.49 ± 0.43
83 | TTTTATCATCACATTTGTCAAAAAAAAAAAAAAAAA [CACACA_negctrl_site1296] | 8.11 ± 0.38
84 | ATATCAAACTAGAATGTGCGCATGCATTCAAGTTTT | 8.88 ± 0.28
85 | GATTTTATAATTTCTACACACATATAAGAATATTCA [CACACA_site2802] | 8.86 ± 0.39
86 | TTATGTTCATTATATGCACACATATATATAAATGTA [CACACA_site8947] | 8.86 ± 0.33
87 | AAAAAAAATTTCTCAAGTACACAATTTTTTTTTGTT [XGTACX_site5874] | 8.62 ± 0.45
88 | TTTTTTTAAATATATAAGATAAATTTATAAATAAAT [XGTACX_negctrl_site282] | 7.93 ± 0.43
